From the BET-seq Pho4 binding data (Le et al. 2018)
Some of the results follow. Values were computed here from the reads of four pooled replicates and scatter widely.

These sequences were tested against T1, Pho4 (S. cerevisiae) (UniProt P07270) (assay: relative binding free energy (BET-seq); higher = weaker binding). Details: reference: library average.
T1 sequence: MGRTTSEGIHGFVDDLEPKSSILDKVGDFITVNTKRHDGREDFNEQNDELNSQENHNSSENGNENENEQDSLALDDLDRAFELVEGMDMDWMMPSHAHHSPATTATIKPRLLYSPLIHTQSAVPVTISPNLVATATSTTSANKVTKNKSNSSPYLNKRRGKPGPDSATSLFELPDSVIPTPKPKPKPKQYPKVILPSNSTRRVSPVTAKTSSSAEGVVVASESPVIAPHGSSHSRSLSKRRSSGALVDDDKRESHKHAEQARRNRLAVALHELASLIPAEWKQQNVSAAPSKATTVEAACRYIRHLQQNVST

Sequence	relative binding free energy [kcal/mol]
CTGATCACGTGGATGT	0.2
TGTGCCACGTGGGGGT	-0.29
ATATGCACGTGTACTT	-0.08
TAAGGCACGTGAGCGG	-0.01
TGGGTCACGTGGGTAC	-0.07
AGGAACACGTGTGAGT	-0.04
AGTAGCACGTGCGGGT	-0.18
TTGAGCACGTGAATTG	0.37
AAGCGCACGTGCGGGT	-0.24
ATTTACACGTGTATCT	0.16
ATAAGCACGTGGGATG	-0.32
AACTTCACGTGATTGG	0.31
ATAGGCACGTGAAAGT	0.04
TGTGCCACGTGTGTTT	0.02
CGCTTCACGTGGAGTG	0.16
GCATTCACGTGGGTGT	0.21
GGAGACACGTGGTCGT	-0.04
GCGATCACGTGAGTGG	0.38
CGATACACGTGAGGGG	0.2
ATCGTCACGTGATGTC	0.33
AGCGGCACGTGGCGGA	-0.07
ATTGGCACGTGCTAGA	-0.15
CGGCTCACGTGGGGCG	0.01

Sequence	relative binding free energy [kcal/mol]
GAAGGCACGTGGTTTT	-0.08
GATGTCACGTGTTACG	0.24
CTTTACACGTGGGGAG	-0.02
TGTTACACGTGAGCTG	0.27
TAAGGCACGTGGTTCG	-0.24
GTATACACGTGGGATT	-0.11
TACGTCACGTGTTTGG	0.15
GGTTTCACGTGGAGTT	0.33
TGAATCACGTGGGATT	0.04
TAAAGCACGTGGTTGA	-0.15
GACTGCACGTGGTGGT	-0.03
AATGGCACGTGGGTTG	-0.23
TTTGACACGTGTTATT	0.1
CAGGGCACGTGTACGG	0.09
ATCTTCACGTGTGCGT	0.4
GGGACCACGTGGTATT	0
GGCCGCACGTGATGGG	0.23
GATGACACGTGTGTAT	0.14
CGGCTCACGTGGTGTG	-0.02
ACAGTCACGTGATTGG	0.17
GCGGTCACGTGGACTG	0.14
TTGGGCACGTGTGGGG	-0.03
TGGGTCACGTGGGACA	0

Sequence	relative binding free energy [kcal/mol]
GAGTTCACGTGATTGG	0.36
AGTGGCACGTGGAGCT	-0.25
GCGCGCACGTGTTGGT	-0.19
TTGTCCACGTGGGGTT	-0.09
AAATTCACGTGTGTTA	0.28
CTTGACACGTGGGTTT	-0.1
ATTGTCACGTGCTGAT	-0.03
TGGCGCACGTGGAGAG	0.02
GATTTCACGTGGGAGA	0.22
AACTGCACGTGATGGG	0.06
TGTCTCACGTGATATT	0.32
CGTTGCACGTGCGTGT	-0.13
TTTTCCACGTGAAGTT	0.38
GCGGGCACGTGGGCAA	-0.12
GTGTTCACGTGTCTTA	0.2
TTAGGCACGTGCATGA	-0.16
GTAGGCACGTGGCGGA	-0.21
GAGTACACGTGGGGGT	0.01
CTTGGCACGTGGTGCG	-0.24
ATGCTCACGTGGTAGT	0.13
AGTATCACGTGCGATT	0.18
GGTTGCACGTGGGATA	-0.04
ATTTCCACGTGAGTTG	0.31

Sequence	relative binding free energy [kcal/mol]
GTAAGCACGTGTGATG	0.15
CTTTTCACGTGATGTG	0.26
GTCGGCACGTGTTTGG	-0.01
GTGCGCACGTGGAAGT	0.04
GCGTTCACGTGCTGGG	0.3
ATTTACACGTGTGGGT	0.21
GACGTCACGTGTGGGC	0.32
TATTACACGTGTTCAG	0.1
TCGGTCACGTGGTTCT	0.14
GGCAGCACGTGGAGTT	-0.01
AGGTACACGTGATTTA	0.1
GGGGTCACGTGTATTG	0.12
TTTCACACGTGTTAGA	0.16
TGTCGCACGTGGAGTT	0.03
TTCGTCACGTGAAAGT	0.38
AAACGCACGTGGGGTT	-0.21
GTCAACACGTGAGGTG	0.1
CGTGACACGTGGTGGA	0.12
GATAGCACGTGAAGTA	0.42
GTGGTCACGTGAATTC	0.27
CAATTCACGTGTGGGG	0.19
TCCGGCACGTGGTAGT	-0.19
TCAAGCACGTGAAAGG	0.41

Sequence	relative binding free energy [kcal/mol]
GGTGTCACGTGTATGC	0.1
TTGGTCACGTGCGTAT	0.08
AGTGCCACGTGGGAGA	-0.17
TGGAGCACGTGGTCCG	-0.05
GATATCACGTGTAGGT	0.23
AGTAACACGTGAGTGT	0.22
TAATGCACGTGCGTGT	-0.03
TTGGTCACGTGGTCAC	0.04
TTTCTCACGTGGAGGT	0.16
GTTATCACGTGTCTTG	0.24
TGATTCACGTGAGTTG	0.41
CGTGGCACGTGGTGCA	-0.21
TAGTCCACGTGGTGCG	-0.07
GTGGGCACGTGCTGCG	-0.16
GGTCACACGTGGGAGG	-0.05
GAATGCACGTGATGGT	0.2
TCGTACACGTGCAGGG	0.24
GTAGTCACGTGTTTAA	0.27
TTGATCACGTGTGAAG	0.25
GTCCGCACGTGTATGG	0.07
TTTTGCACGTGTTTAC	0.03
CAGTTCACGTGTCTGG	0.28
GAGTGCACGTGTTAAG	0.1
